“And” between values parts separate entries of the source, which are not always exact repeats. Identical values can stand only once. Among all 220,000 compounds or so, about 16,000 (7.3%) were called active. The inconclusive results got no clear call from the source; some entries with a clear call stand among them for comparison. Calls follow the shape of the dose curve; as a rule, active = well fitted inhibition curve with a large enough effect (not every such curve was filed as active); inconclusive = small, poorly fitted or top-dose-only effect, or another doubt; inactive = no such curve, though single readings can be large or run the other way. Potencies beside an inconclusive call are fits to weak or partial responses and may not hold up.
The compounds below were run against Aldehyde dehydrogenase 1A1 (Homo sapiens) (UniProt P00352) (assay: qHTS Assay for Inhibitors of Aldehyde Dehydrogenase 1 (ALDH1A1)). Settings: Purified ALDH1A1, NADH fluorescence, propionaldehyde substrate; series mostly up to 75.3 µM; activity, negative = inhibition: at the top concentration.
Chain of UniProt P00352 (P00352 whole entry, looked up): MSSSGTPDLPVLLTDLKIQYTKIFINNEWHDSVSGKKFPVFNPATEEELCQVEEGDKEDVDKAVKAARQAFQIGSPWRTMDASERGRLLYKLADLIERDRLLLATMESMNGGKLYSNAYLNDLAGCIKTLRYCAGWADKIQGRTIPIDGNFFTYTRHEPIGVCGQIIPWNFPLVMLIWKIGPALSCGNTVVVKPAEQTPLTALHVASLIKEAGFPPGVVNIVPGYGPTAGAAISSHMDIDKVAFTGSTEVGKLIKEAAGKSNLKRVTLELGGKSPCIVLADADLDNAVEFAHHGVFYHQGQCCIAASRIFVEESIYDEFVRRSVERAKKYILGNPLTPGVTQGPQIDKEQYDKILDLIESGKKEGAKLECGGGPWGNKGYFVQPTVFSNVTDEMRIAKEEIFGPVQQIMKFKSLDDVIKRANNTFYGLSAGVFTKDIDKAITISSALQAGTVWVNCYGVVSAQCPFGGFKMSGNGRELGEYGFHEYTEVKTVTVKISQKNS
COc1ccc(NC(=O)c2nnn(Cc3cccc(F)c3)c2N)c(OC)c1 was tested, and the Potency was inconclusive: 18.9 µM [inhibitor, partial curve]. In the case of COc1ccccc1Nc1nc(-c2ccccc2)nc2ccccc12, the Potency is reported as inconclusive: 37.7 µM [inhibitor, single point]. O=C(CCCCC(=O)NCc1cccs1)NCc1cccs1 was tested, and the “activity, negative = inhibition” value was inactive: 3.15%. For COc1ccc(-n2c(SCC(=O)Nc3cc(C)on3)nc3c([nH]c4ccccc43)c2=O)cc1, the Potency was inconclusive: 28.2 µM [inhibitor, partial curve]. With CCOc1ccccc1CN1CCN(C2CCSCC2)CC1CCO (stereo not given) the “activity, negative = inhibition” value was inactive: 1.11%. With Cc1cc(=O)oc2cc(OCC(=O)OCC(=O)NCCc3ccccc3)ccc12 the Potency was inconclusive: 35.5 µM [inhibitor, single point]. c1ccc2oc(-c3ccc(Nc4nc(N5CCCC5)nc(N5CCOCC5)n4)cc3)nc2c1 was tested, and the Potency was inconclusive: 8.91 µM [inhibitor, partial curve]. With O=C(CSc1ccc2nnc(-c3cccnc3)n2n1)NCc1ccco1 the Potency was inconclusive: 28.2 µM [inhibitor, partial curve]. With CN(CC(=O)Nc1c(Cl)cccc1Cl)C(=O)CCCN1C(=O)c2ccccc2C1=O the Potency was inconclusive: 39.8 µM [inhibitor, single point]. With CCn1cc(C(=O)O)c(=O)c2cc(OC)ccc21 the Potency was inconclusive: 39.8 µM [inhibitor, single point]. CC(=O)Nc1ccc(-c2cc(-c3ccccc3)nc(-c3ccccc3)n2)cc1 was tested, and the Potency was inconclusive: 6.31 µM [inhibitor, full curve]. O=C(Cc1nc2ccccc2[nH]1)c1ccc(Br)cc1 was tested, and the Potency was inconclusive: 25.1 µM [inhibitor, single point]. With CCc1cc(/C(Cc2ccccn2)=N\Nc2ccccc2)c(O)cc1O the Potency was active: 7.94 µM. With Cc1ccc(-c2nnn(CC(=O)N(c3cccc(F)c3)C(C(=O)NC(C)(C)C)c3ccco3)n2)o1 (stereo not given) the Potency was inconclusive: 39.8 µM [inhibitor, single point]. In the case of COc1cc(/C=C/C(=O)NNc2c(F)c(F)cc(F)c2F)ccc1OC(F)F, the Potency is reported as inconclusive: 44.7 µM [inhibitor, single point]. With CCCCNC(=O)CN1CCC2(O)CCCCC2C1c1ccccc1OC (stereo not given) the Potency was inconclusive: 20 µM [inhibitor, partial curve]. With C=CCn1c(=O)c2c(nc(-c3ccc(S(=O)(=O)O)cc3)n2C)n(C)c1=O the Potency was inconclusive: 28.2 µM [inhibitor, partial curve] and inconclusive: 20 µM [inhibitor, partial curve]. With O=c1[nH]c2ccccc2c(=O)n1Cc1ccco1 the “activity, negative = inhibition” value was inactive: -8.81%. In the case of COc1ccc(C=O)cc1COc1ccc([N+](=O)[O-])c(C)c1, the Potency is reported as inconclusive: 39.8 µM [inhibitor, single point]. In the case of CC(C)CNC(=O)CSc1nnc2ccccn12, the “activity, negative = inhibition” value is reported as inactive: -3.88%. With COc1ccc2c(CC(=O)NCc3cccs3)coc2c1 the “activity, negative = inhibition” value was inactive: -10.6%. Cc1ccc2cc(CNC(C)C)c(=O)[nH]c2c1 was tested, and the Potency was inconclusive: 31.6 µM [inhibitor, single point]. With O=C(Nc1ccccc1C(=O)O)c1ccc(NC(=O)c2ccc(Br)o2)cc1 the Potency was inconclusive: 39.8 µM [inhibitor, single point]. In the case of COC(=O)CSc1nc(C)c(Oc2ccccc2)c(=O)[nH]1, the “activity, negative = inhibition” value is reported as inactive: -1.51%. With Cc1cc(-n2c(C)cc(C(=O)COc3ccccc3[N+](=O)[O-])c2C)no1 the Potency was inconclusive: 28.2 µM [inhibitor, single point]. With Cc1csc(SCC(=O)Nc2ccccc2[N+](=O)[O-])n1 the “activity, negative = inhibition” value was inactive: 1.79%. O=C(NCc1ccco1)C1CC(=O)N(CCc2ccccc2)C1 (stereo not given) was tested, and the Potency was active: 22.4 µM. For Cc1cccc[n+]1C1C(c2ccccc2)C(C#N)=C(C(=C=[N-])C#N)NC1(O)C1CC1 (stereo not given), the Potency was inconclusive: 35.5 µM [inhibitor, single point]. For O=C(c1cc2ccccn2n1)N1CCCC1, the “activity, negative = inhibition” value was inactive: -14.6%. With O=C(Nc1cccn(Cc2c(Cl)cccc2Cl)c1=O)c1ccc(Cl)cc1Cl the Potency was inconclusive: 15.8 µM [inhibitor, partial curve]. With O=C(Nc1ccccc1C(=O)O)c1ccccc1 the “activity, negative = inhibition” value was inactive: -2.51%. For CCCCC(=O)Nc1cc2nn(-c3ccc(OC)cc3)nc2cc1C, the Potency was inconclusive: 11.2 µM [inhibitor, partial curve]. COc1ccc(/C=C(\NC(=O)c2ccccc2)C(=O)N/N=C/c2ccncc2)cc1 was tested, and the Potency was inconclusive: 25.1 µM [inhibitor, single point]. COC(=O)c1sc2nc(CSc3nc4ccc(C)cc4[nH]3)[nH]c(=O)c2c1C was tested, and the “activity, negative = inhibition” value was inactive: 3.09%. With Cc1[nH][nH]c(=O)c1N=Nc1ccccc1Cl the “activity, negative = inhibition” value was inactive: 2.36%. CCCC(C)(C)NC(=O)CCCCC(=O)NC(C)(C)CCC was tested, and the Potency was inconclusive: 14.1 µM [inhibitor, single point]. For COc1ccc(NC(=O)N2CCC(c3nc4ccccc4[nH]3)CC2)cc1, the “activity, negative = inhibition” value was inactive: -16.7%. With COC(=O)c1ccc(C2C(Oc3ccc(OC)cc3)C(=O)N2CCc2ccc(OC)c(OC)c2)cc1 (stereo not given) the Potency was inconclusive: 44.7 µM [inhibitor, single point]. Cc1ccc(-n2c(-c3ccccc3)cc(/C=N/NC(=O)CC#N)c2-c2ccccc2)cc1 was tested, and the Potency was inconclusive: 28.2 µM [inhibitor, partial curve]. In the case of C=CSc1sc(Cl)c(N(CC)CC)c1[N+](=O)[O-], the Potency is reported as active: 15.8 µM. With Cc1nnsc1C(=O)Nc1cccc(Cl)c1C the “activity, negative = inhibition” value was inactive: 3.33%. In the case of N#C/C(=C\c1cccs1)C(=O)c1ccccc1Cl, the Potency is reported as active: 22.4 µM. For CCOC(=O)C1CCN(C(=O)c2cccc(S(=O)(=O)Nc3ccc(C)cc3C)c2)CC1, the Potency was inconclusive: 20 µM [inhibitor, partial curve]. In the case of CCn1c(SCC(=O)N2CCN(c3ccccc3)CC2)nnc1-c1cc2cc(Cl)ccc2o1, the Potency is reported as inconclusive: 39.8 µM [inhibitor, single point]. O=[N+]([O-])c1cc(Br)c(O)c(/C=N/Nc2nnnn2-c2cccc3ccccc23)c1 was tested, and the Potency was active: 17.8 µM.
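For activity, negative = inhibition in this document: plate controls were no enzyme wells and a reference inhibitor.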
Potency is read from the fitted curve at half-maximal effect; tags tell the direction and shape of the fitted curve.
